Data from PubChem BioAssay (NCATS).
Values joined by “and” are separate entries in the source; they are usually repeats but may differ in a detail not shown here. Equal values may be shown once. Inconclusive results, whose numbers are uncertain, are shown with a selection of clear calls. A potency beside an inconclusive call is a rough fit, not a confirmed value. Active and inactive are the calls of the source. Unless noted, calls come from the whole dose curve; as a rule, active = well fitted curve in the direction sought with a large enough effect; inconclusive = small, poorly fitted or top-dose-only effect, or another doubt; inactive = no such curve, though single readings can be large; an effect the other way counts as inactive or inconclusive.

Experiment: qHTS assay for small molecule agonists of the antioxidant response element (ARE) signaling pathway measured by Nrf2-dependant transcriptional activity - cell viability counter screen (AID 720653; active = well fitted curve in the direction sought with a large enough effect in the repeat runs; inconclusive = weak or mixed curves; inactive = no such curve, though single readings can be large; an effect the other way counts as inactive or inconclusive)
Details: ARE-bla HepG2 viability, CellTiter-Glo ATP luminescence, 16 h; max response: hits give low values
In short: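 ARE-bla HepG2 cells (2,000/well) rested 5 hrs at 37C/5% CO2, then exposed to compounds in DMSO for 16 hrs. Viability was read in the same wells as intracellular ATP by luminescence, 30 min at room temperature after reagent addition.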
% is set by controls: 0 for no effect and ±100 for the full control effect; potency is the fitted concentration of half-maximal effect; tags give direction and shape of the fitted curve.

Row | Compound | Potency | max response
1 | CC[C@H]1O[C@]2(CC[C@@H]1C)C[C@@H]1C[C@@H](C/C=C(\C)C[C@@H](C)/C=C/C=C3CO[C@@H]4[C@H](O)C(C)=C[C@@H](C(=O)O1)[C@]34O)O2 | inconclusive: 70.8 µM [cytotoxic, single point] | –
2 | O=C(O)c1cc(O)c2ccccc2c1O | inconclusive: 50.1 µM [cytotoxic, single point] | –
3 | O=C(Nc1ccccc1)c1cc(Cl)ccc1O | inconclusive: 31.6 µM [cytotoxic, partial curve, poor fit] | –
4 | CO/N=C1\C[C@]2(C[C@@H]3C[C@@H](C/C=C(\C)C[C@@H](C)/C=C/C=C4\CO[C@@H]5[C@H](O)C(C)=C[C@@H](C(=O)O3)[C@]45O)O2)O[C@H](/C(C)=C/C(C)C)[C@H]1C | active: 44.7 µM | –
5 | N#CSCSc1nc2ccccc2s1 | inconclusive: 35.5 µM [cytotoxic, partial curve] | –
6 | CC[C@H](C)C1O[C@]2(C=C[C@@H]1C)C[C@@H]1C[C@@H](C/C=C(\C)[C@@H](O[C@H]3C[C@H](OC)[C@@H](O[C@H]4C[C@H](OC)[C@H](NC(C)=O)[C@H](C)O4)[C@H](C)O3)[C@@H](C)/C=C/C=C3\CO[C@@H]4[C@H](O)C(C)=C[C@@H](C(=O)O1)[C@]34O)O2 (stereo partly specified) | – | inconclusive: -101%
7 | O=C(Nc1ccccc1)c1ccccc1O | inconclusive: 50.1 µM [cytotoxic, partial curve, poor fit] | –
8 | Cc1cc(Cc2cc(C)cc(C(C)(C)C)c2O)c(O)c(C(C)(C)C)c1 | active: 39.8 µM | –

Experiment: qHTS assay for cell viability of HEK293 cells (AID 743288); note: nearly all actives have a fitted effect of over 50% in size
Details: ATP luminescence (CellTiter-Glo), 18 h; max response: hits give low values
In short: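 Environmental chemicals tested in qHTS format against parental HEK293 cells; 18 h treatment, 37 C; read-out ATP luminescence (CellTiter-Glo), 30 min RT development.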

Row | Compound | Potency | max response
9 | CC[C@H]1O[C@]2(CC[C@@H]1C)C[C@@H]1C[C@@H](C/C=C(\C)C[C@@H](C)/C=C/C=C3CO[C@@H]4[C@H](O)C(C)=C[C@@H](C(=O)O1)[C@]34O)O2 | inconclusive: 50.1 µM [cytotoxic, partial curve, poor fit] | –
10 | O=C(O)c1cc(O)c2ccccc2c1O | inconclusive: 50.1 µM [cytotoxic, partial curve, poor fit] | –
11 | O=C(Nc1ccccc1)c1cc(Cl)ccc1O | inconclusive: 35.5 µM [cytotoxic, partial curve, poor fit] | –
12 | CO/N=C1\C[C@]2(C[C@@H]3C[C@@H](C/C=C(\C)C[C@@H](C)/C=C/C=C4\CO[C@@H]5[C@H](O)C(C)=C[C@@H](C(=O)O3)[C@]45O)O2)O[C@H](/C(C)=C/C(C)C)[C@H]1C | inconclusive: 50.1 µM [cytotoxic, partial curve, poor fit] | –
13 | Nc1ccc(N)c2c1C(=O)c1c(N)ccc(N)c1C2=O | – | inactive: -28.2%
14 | N#CSCSc1nc2ccccc2s1 | inconclusive: 35.5 µM [cytotoxic, partial curve] | –
15 | CCN(Cc1c(F)cccc1Cl)c1c([N+](=O)[O-])cc(C(F)(F)F)cc1[N+](=O)[O-] | inconclusive: 50.1 µM [cytotoxic, partial curve, poor fit] | –
16 | COCCO | – | inactive: -2.14% and inactive: 3.11%
17 | Cc1ccc2c(c1[N+](=O)[O-])C(=O)c1ccccc1C2=O | inconclusive: 2.24 µM [cytotoxic, full curve] | –
18 | CC(C)CCCCCCc1ccc(OCCOCCO)cc1 | inconclusive: 50.1 µM [cytotoxic, single point] | –
19 | CC[C@H](C)C1O[C@]2(C=C[C@@H]1C)C[C@@H]1C[C@@H](C/C=C(\C)[C@@H](O[C@H]3C[C@H](OC)[C@@H](O[C@H]4C[C@H](OC)[C@H](NC(C)=O)[C@H](C)O4)[C@H](C)O3)[C@@H](C)/C=C/C=C3\CO[C@@H]4[C@H](O)C(C)=C[C@@H](C(=O)O1)[C@]34O)O2 (stereo partly specified) | active: 44.7 µM | –
20 | O=c1[nH]sc2ccccc12 | inconclusive: 50.1 µM [cytotoxic, partial curve, poor fit] | –
21 | O=C(Nc1ccccc1)c1ccccc1O | inconclusive: 44.7 µM [cytotoxic, partial curve, poor fit] | –
